In PubChem BioAssay AID504339 (National Center for Advancing Translational Sciences (NCATS), 2011):
Screen size: about 390,000 compounds; about 17,000 (4.4%) were called active. This list was built around the results that the source calls inconclusive (neither active nor inactive); the mix of calls is not that of the screen. Calls follow the shape of the dose curve; as a rule, active = well fitted inhibition curve with a large enough effect; inconclusive = small, poorly fitted or top-dose-only effect; inactive = no such curve, though single readings can be large or run the other way. Potencies beside an inconclusive call are fits to weak or partial responses and may not hold up.
% is scaled to controls: 0 for no effect and ±100 for the full control effect; potency is read from the fitted curve at half-maximal effect; tags tell the direction and shape of the fitted curve.
Also: nearly all actives have a fitted effect of over 50% in size.

What follows are compounds tested against Lysine-specific demethylase 4A (Homo sapiens) (UniProt O75164) (assay: qHTS Assay for Inhibitors of JMJD2A-Tudor Domain). Conditions: AlphaScreen JMJD2A-Tudor / H3K4me3 peptide binding; activity change, negative = inhibition: at 114 µM (top of the series).
UniProt O75164, sequence (O75164 whole entry, looked up, the tested form may be a part): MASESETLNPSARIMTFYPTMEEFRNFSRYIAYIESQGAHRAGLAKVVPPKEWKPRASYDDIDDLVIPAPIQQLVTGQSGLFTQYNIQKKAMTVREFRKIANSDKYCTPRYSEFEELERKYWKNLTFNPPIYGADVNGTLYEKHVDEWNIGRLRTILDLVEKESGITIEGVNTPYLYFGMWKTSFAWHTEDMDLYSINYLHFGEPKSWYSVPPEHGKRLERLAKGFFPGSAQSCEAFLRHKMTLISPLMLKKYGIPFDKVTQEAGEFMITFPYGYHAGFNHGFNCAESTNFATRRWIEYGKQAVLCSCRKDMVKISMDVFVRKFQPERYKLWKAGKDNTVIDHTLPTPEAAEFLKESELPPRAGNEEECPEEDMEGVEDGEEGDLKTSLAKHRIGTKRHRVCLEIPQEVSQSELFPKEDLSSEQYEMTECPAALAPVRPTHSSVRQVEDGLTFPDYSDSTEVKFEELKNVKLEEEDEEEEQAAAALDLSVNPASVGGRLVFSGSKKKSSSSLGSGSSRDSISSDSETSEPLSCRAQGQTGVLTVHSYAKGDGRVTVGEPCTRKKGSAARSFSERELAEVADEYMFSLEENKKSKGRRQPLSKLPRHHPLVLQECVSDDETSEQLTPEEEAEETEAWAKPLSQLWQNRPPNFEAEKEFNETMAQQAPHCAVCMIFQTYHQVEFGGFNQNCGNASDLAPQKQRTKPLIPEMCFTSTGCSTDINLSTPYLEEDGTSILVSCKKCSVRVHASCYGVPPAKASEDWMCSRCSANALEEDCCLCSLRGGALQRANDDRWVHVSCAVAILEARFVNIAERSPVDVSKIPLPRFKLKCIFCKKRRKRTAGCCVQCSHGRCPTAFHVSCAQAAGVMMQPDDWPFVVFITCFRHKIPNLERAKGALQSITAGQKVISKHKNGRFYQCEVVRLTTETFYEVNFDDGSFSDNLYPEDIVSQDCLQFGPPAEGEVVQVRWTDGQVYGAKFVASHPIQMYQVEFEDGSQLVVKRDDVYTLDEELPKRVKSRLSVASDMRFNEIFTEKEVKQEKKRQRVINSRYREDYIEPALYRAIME
In the case of O=C(O)CNC(=O)CC1S/C(=N/N=C/c2ccccc2O)NC1=O (stereo not drawn), the Potency is reported as inconclusive: 22.4 µM [inhibitor, partial curve].
For COc1ccccc1OCC(=O)c1[nH]c(C)c(C(C)=O)c1C, the Potency was inconclusive: 89.1 µM [inhibitor, single point].
O=C(O)Cc1ccc(NC(=O)Nc2ccc(Br)cc2)cc1 was tested, and the “activity change, negative = inhibition” value was inactive: -1.72%.
For CCOc1ccc(NC(=O)CSc2nnc(Cc3cccn3C)n2-c2ccc(OC)cc2)cc1, the Potency was inconclusive: 22.4 µM [inhibitor, full curve].
In the case of COc1ccc(OCC(=O)Nc2c(C(=O)N(CCN(C)C)Cc3ccco3)oc3ccccc23)cc1, the Potency is reported as inconclusive: 50.1 µM [inhibitor, partial curve].
CC1c2ccccc2N(NC(=O)Cc2ccccc2)C1C (stereo not drawn) was tested, and the “activity change, negative = inhibition” value was inactive: 1.08%.
With CC(Nc1ccc([N+](=O)[O-])cc1[N+](=O)[O-])c1ccccc1 (stereo not drawn) the Potency was active: 12.6 µM.
In the case of CCn1c(C)c(C)c2cc(C(=O)NCCN3CCCCCC3)ccc21, the Potency is reported as active: 44.7 µM.
COc1ccc(C)cc1-n1nnnc1SCC(=O)NC(=O)NCc1ccco1 was tested, and the Potency was inconclusive: 50.1 µM [inhibitor, partial curve].
In the case of CCOc1cccc(OCCOCCNC(C)(C)C)c1, the Potency is reported as active: 22.4 µM.
With COc1ccc(OC)c(NC(=O)C(C)n2c(=O)c(-c3ccccc3NC(C)=O)nc3ccccc32)c1 (stereo not drawn) the “activity change, negative = inhibition” value was inactive: -15.6%.
COc1cc(NC(=O)c2ccccc2F)c(OC)cc1NC(=O)CN1CCCCC1 was tested, and the Potency was inconclusive: 50.1 µM [inhibitor, partial curve].
For CCc1ccc(-c2ccc(SCC(=O)Nc3nnc(C)s3)nn2)cc1, the Potency was inconclusive: 25.1 µM [inhibitor, partial curve].
With CCCN(CC(=O)Nc1ccccc1OC)C(=O)c1ccc2[nH]c3c(c2c1)CC(C)CC3 (stereo not drawn) the Potency was inconclusive: 35.5 µM [inhibitor, partial curve].
Cn1c(=O)c(=O)n(C)c2cc(S(=O)(=O)CCC(=O)N3CCOCC3)ccc21 was tested, and the Potency was inconclusive: 44.7 µM [inhibitor, full curve].
O=[N+]([O-])c1ccc(N/N=C2\CC3CC=CC23)c([N+](=O)[O-])c1 (stereo not drawn) was tested, and the Potency was active: 14.1 µM.
With O=C1c2ccccc2C(=O)c2c1cccc2N1CCN(CCO)CC1 the Potency was inconclusive: 56.2 µM [inhibitor, partial curve].
For COc1ccc(C)cc1NC(=O)CSc1nnc(-c2ccccn2)n1Cc1ccco1, the Potency was inconclusive: 56.2 µM [inhibitor, partial curve].
With Cc1ccccc1Nc1nnc(SCC(=O)N(C)C2CCS(=O)(=O)C2)s1 (stereo not drawn) the “activity change, negative = inhibition” value was inactive: 2.09%.
O=C(O)c1cc2ncc(-c3[nH]ncc3[N+](=O)[O-])cn2n1 was tested, and the Potency was active: 79.4 µM.
In the case of COc1ccc(-c2nc(C)c(C(C)=O)n2O)cc1[N+](=O)[O-], the “activity change, negative = inhibition” value is reported as inactive: -25.6%.
In the case of CC(=O)NC(c1cc(F)c2cccnc2c1O)C1CC1 (stereo not drawn), the Potency is reported as active: 79.4 µM.
In the case of O=C(/C=C/c1ccccc1)NC(=S)N1CCSCC1, the Potency is reported as inconclusive: 39.8 µM [inhibitor, single point].
With CCOc1cc(/C=C(/NC(C)=O)C(=O)O)cc(Cl)c1OCc1cccc(Br)c1 the Potency was inconclusive: 17.8 µM [inhibitor, partial curve, poor fit].
In the case of O=C(O)CCc1ccc(-c2ccccc2)n1CC(=O)O, the Potency is reported as inconclusive: 89.1 µM [inhibitor, partial curve].
With CCN(CC)CCNC(=S)NC(=O)c1cn(-c2ccccc2)nc1-c1ccc(OC)cc1 the Potency was inconclusive: 79.4 µM [inhibitor, partial curve].
CCc1ccc(NC(=O)NCCN2CCN(c3ccc(OC)cc3)CC2)cc1 was tested, and the “activity change, negative = inhibition” value was inactive: -30.4%.
For CCc1ccc(NCCC(=O)c2ccc(Br)cc2)cc1, the “activity change, negative = inhibition” value was inactive: -3.31%.
O=C(N=Nc1c(O)[nH]c2ccc(F)cc12)C1COc2ccccc2O1 (stereo not drawn) was tested, and the Potency was inconclusive: 20 µM [inhibitor, single point].
COC(=O)c1c[nH]c(=O)c2ccccc12 was tested, and the Potency was inconclusive: 6.31 µM [inhibitor, full curve].
In the case of COc1cc(C(=O)Nc2ccc3c(c2)OCO3)ccc1-n1cnnn1, the “activity change, negative = inhibition” value is reported as inactive: -6.72%.
For Cc1cc(=O)oc2cc(O)c(N=Nc3ccccc3)cc12, the Potency was inconclusive: 25.1 µM [inhibitor, full curve, poor fit].
In the case of CCCn1c(SCC(=O)N(CC)c2c(N)n(Cc3ccccc3)c(=O)[nH]c2=O)nnc1-c1ccncc1, the “activity change, negative = inhibition” value is reported as inactive: -3.76%.
Cn1c(SCC(=O)c2ccccc2)nnc1-c1cnccn1 was tested, and the Potency was active: 25.1 µM.
In the case of CCOC(=O)C1CCN(C(c2ccc(SC)cc2)c2c(O)cc(C)n(Cc3ccco3)c2=O)CC1 (stereo not drawn), the Potency is reported as active: 56.2 µM.
In the case of CCC(CC)Nc1ccc(C(CC(N)=O)NC(=O)c2ccccc2)cc1[N+](=O)[O-] (stereo not drawn), the Potency is reported as inconclusive: 56.2 µM [inhibitor, partial curve].
In the case of CCc1cccc(C)c1NC(=O)Cn1cnc2c1c(=O)n(C)c(=O)n2C, the “activity change, negative = inhibition” value is reported as inactive: -17.6%.
Cc1ccc(OCC(=O)NNC(=O)CSc2ncnc3sc(C)c(C)c23)cc1 was tested, and the Potency was inconclusive: 50.1 µM [inhibitor, partial curve].
N/N=C(\c1ccccc1)c1cc(Br)ccc1N was tested, and the Potency was inconclusive: 89.1 µM [inhibitor, partial curve].
With COc1ccc(-c2c(C)c3ccc(O)c(CN4CCOCC4)c3oc2=O)cc1 the “activity change, negative = inhibition” value was inactive: 4.87%.
CCC/C(O)=C1\C(=O)CCCC1=NCCc1c(C)[nH]c2ccccc12 was tested, and the Potency was inconclusive: 56.2 µM [inhibitor, partial curve].
With CCCCNC(=O)CSc1nnc(-c2c[nH]c3ccccc23)n1CC1CCCO1 (stereo not drawn) the “activity change, negative = inhibition” value was inactive: -20.5%.
For Cc1nn(-c2ccccc2)c(OC(=O)c2cccs2)c1S(=O)(=O)c1ccc([N+](=O)[O-])cc1, the Potency was inconclusive: 70.8 µM [inhibitor, single point].
With O=C(NCc1ccco1)[C@@H]1CSC2c3ccccc3C(=O)N21 (stereo partly drawn) the Potency was inconclusive: 39.8 µM [inhibitor, full curve, poor fit].
With Cc1ccc(-c2nn(CC(=O)Nc3ccc4c(c3)nc3n4CCOC3)c(=O)c3ccccc23)cc1 the Potency was inconclusive: 100 µM [inhibitor, single point].
With Cc1ccc(/C=C2\Oc3c(ccc(O)c3CN3CCN(C)CC3)C2=O)cc1 the “activity change, negative = inhibition” value was inactive: -5.52%.
With CCOc1ccc(OCC)c(NS(=O)(=O)c2cc(-c3cnc(C)o3)ccc2OC)c1 the Potency was inconclusive: 50.1 µM [inhibitor, partial curve].
With CCOCc1c(C(=O)OCC(=O)Nc2ccccc2C(N)=O)oc2ccccc12 the “activity change, negative = inhibition” value was inactive: -13.5%.
With CC1CCC(NC(=O)CCS(=O)(=O)c2ccc3c(c2)CC(C)N3C(=O)C2CC2)CC1 (stereo not drawn) the Potency was inconclusive: 17.8 µM [inhibitor, single point].
For CC(=O)Nc1nc(-c2ccc3c(c2)CC(C)N3C(=O)C2CC2)c(C)s1 (stereo not drawn), the “activity change, negative = inhibition” value was inactive: -31.5%.
With NCCCCC(=O)O the “activity change, negative = inhibition” value was inactive: -9.35%.
With COC(=O)c1c(NC(=O)COc2ccc(Cl)cc2)sc2c1CC(C)(C)NC2(C)C the Potency was inconclusive: 22.4 µM [inhibitor, partial curve].
In the case of COc1ccccc1OCCCSc1nc(-c2ccc(C(C)(C)C)cc2)nc2cc(=O)[nH]n12, the Potency is reported as active: 50.1 µM.
For CCCn1c(CN2CCCCC2CC)nc2c1c(=O)n(C)c(=O)n2C (stereo not drawn), the “activity change, negative = inhibition” value was inactive: -9.52%.
CCOc1ccc(CCNC(=O)COC(=O)COc2ccccc2C)cc1OCC was tested, and the “activity change, negative = inhibition” value was inactive: -6.9%.
With COC(=O)/C(=C\C(=O)c1ccccc1)Nc1ccc(OC)cc1 the Potency was active: 35.5 µM.
With COc1ccc(OC)c(NCc2cccn2-c2nnc(N3CCCCC3)s2)c1 the Potency was active: 50.1 µM.
COc1ccc2[nH]c(=O)c(CN(Cc3cccs3)S(=O)(=O)c3c(C)ccc4nsnc34)cc2c1 was tested, and the Potency was inconclusive: 22.4 µM [inhibitor, full curve].
For Cn1c(=O)c2c(nc(Br)n2CC(=O)C23CC4CC(CC(C4)C2)C3)n(C)c1=O, the Potency was inconclusive: 100 µM [inhibitor, single point].
For Cc1ccc(-c2cn3nc(N4CCCC(C(=O)Nc5ccc(F)cc5)C4)sc3n2)cc1 (stereo not drawn), the “activity change, negative = inhibition” value was inactive: -26.1%.
For CCOC(=O)c1sc(NCc2ccco2)c(-c2nc3ccccc3s2)c1N, the Potency was inconclusive: 44.7 µM [inhibitor, partial curve].
O=C(NCCc1ccc(F)cc1)C(=O)NCC(c1cccs1)S(=O)(=O)c1ccc(F)cc1 (stereo not drawn) was tested, and the “activity change, negative = inhibition” value was inactive: -19.5%.
In the case of Cc1ccccc1Oc1ccc(S(=O)(=O)NCCC(=O)O)cc1, the Potency is reported as inconclusive: 89.1 µM [inhibitor, single point].
In the case of CCOc1cc(CNCc2ccccn2)cc(Cl)c1OC, the Potency is reported as active: 44.7 µM.
For Cc1cccc(NC(=S)NNC(=O)c2cc3c(s2)CCC(C)C3)c1C (stereo not drawn), the Potency was inconclusive: 44.7 µM [inhibitor, partial curve].
With COc1ccc2nc(N3C(=O)/C(=C/c4ccccc4)NC3=S)sc2c1 the Potency was inconclusive: 10 µM [inhibitor, full curve, poor fit].
For Cc1ccccc1CSc1nnc(NC(=O)Cc2cccs2)s1, the “activity change, negative = inhibition” value was inactive: -21%.
CCCc1ccc2oc(C(=O)N3CCC(C(N)=O)(N4CCCCC4)CC3)c(C)c2c1 was tested, and the Potency was inconclusive: 70.8 µM [inhibitor, partial curve, poor fit].
For CCOc1ccc2ncc(S(=O)(=O)c3ccccc3)c(N3CCN(c4ccc(OC)cc4)CC3)c2c1, the Potency was inconclusive: 50.1 µM [inhibitor, single point].
With CCOc1ccc(C(c2c(O)cc(C)n(CCOC)c2=O)N2CCN(c3ccccc3)CC2)cc1 (stereo not drawn) the Potency was inconclusive: 89.1 µM [inhibitor, single point].
CCOc1cc(C(=S)N2CCCC2)ccc1O was tested, and the “activity change, negative = inhibition” value was inactive: -6.12%.
For CN(C)S(=O)(=O)c1cccc(-c2nnc(SCCNCCO)n2-c2ccc(F)cc2)c1, the Potency was active: 50.1 µM.
For Cc1cc(S(=O)(=O)ON2C(=O)c3ccccc3C2=O)ccc1F, the Potency was active: 79.4 µM.
